Patent US8633183B2 (priority 2010, dated 2014)
Like-named read-outs stand apart in the source and are kept apart here.

System: PC3 (human prostate carcinoma cell line) cells
Experiment: cells
[1] = PC-3, 72 h, read-out: EC50 PC3 [nM]

Structure (SMILES) | EC50 (read-out: EC50 PC3) [nM] | EC50 [1] [nM]
CCc1ncnc(-c2ccc(C(=O)N3CCN(CC(F)F)CC3)c(Cl)c2)c1C#Cc1ccc(N)nc1 [Example D-41] | 28 | 
CCc1ncnc(-c2ccc(C(=O)N3CCC(N(C)C)C3)c(F)c2)c1C#Cc1ccc(N)nc1 [Example D-215] | 64 | 
CCc1ncnc(-c2ccc(C(=O)N3CCN(Cc4ccccc4)CC3)c(Cl)c2)c1C#Cc1ccc(N)nc1 [Example D-160] | 133 | 
CCc1ncnc(-c2ccc(Cl)c(C(=O)NC)c2)c1C#Cc1ccc(N)nc1 [Example C-49] |  | 506
CCc1ncnc(-c2ccc(C(=O)N3CCC(N(CC)CC)C3)c(F)c2)c1C#Cc1ccc(N)nc1 [Example D-238] | 71 | 
CCc1ncnc(-c2ccc(C(=O)N3CCC(CCO)CC3)c(F)c2)c1C#Cc1ccc(N)nc1 [Example D-104] | 62 | 
CCc1ncnc(-c2ccc(C(=O)N3CCOCC3)c(OC)c2)c1C#Cc1ccc(N)nc1 [Example D-166] | 116 | 
CCc1ncnc(-c2ccc(C(=O)N3CCOCC3)c(F)c2)c1C#Cc1ccc(N)nc1C [Example D-20] | 14 | 
CCc1ncnc(-c2ccc(C(=O)N3CC(O)CO3)cc2)c1C#Cc1ccc(N)nc1 [Example D-224] | 106 | 
CCc1ncnc(-c2ccc(C(=O)N3CCC(O)(C(C)C)CC3)c(F)c2)c1C#Cc1ccc(N)nc1 [Example D-124] | 43 | 
Cc1ncnc(-c2cnc3ccccc3c2)c1C#Cc1ccc(N)nc1 [Example C-22] |  | 163
CCc1ncnc(-c2ccc(C(=O)NC)c(Cl)c2)c1C#Cc1ccc(N)nc1 [Example C-12] |  | 46
CCc1ncnc(-c2ccc(C(=O)N3CCC(C(F)(F)F)CC3)c(F)c2)c1C#Cc1ccc(N)nc1C [Example D-14] | 72 | 
CCc1ncnc(-c2ccc(C(=O)NC3CCN(CCOC)CC3)c(F)c2)c1C#Cc1ccc(N)nc1 [Example D-201] | 90 | 
CCc1ncnc(-c2ccc(C(=O)NCCN3CCCC3=O)c(F)c2)c1C#Cc1ccc(N)nc1 [Example D-211] | 141 | 
CCc1ncnc(-c2ccc(C(=O)N3CCN(C4CC4)CC3)c(F)c2)c1C#Cc1ccc(N)nc1C [Example D-13] | 53 | 
CCc1ncnc(-c2ccc(C(=O)N3CCN(CC)CC3)c(Cl)c2)c1C#Cc1ccc(N)nc1 [Example D-45] | 54 | 
CCc1ncnc(-c2ccc(C(=O)N3CCC(N4CCOCC4)C3)c(F)c2)c1C#Cc1ccc(N)nc1 [Example D-234] | 73 | 
CCc1ncnc(-c2ccc(C(=O)N(C)O)c(F)c2)c1C#Cc1ccc(N)nc1 [Example D-68] | 24 | 
CCc1ncnc(-c2ccc(C(=O)N3CCN(CC4CCCCC4)CC3)c(F)c2)c1C#Cc1ccc(N)nc1 [Example D-94] | 602 | 
CCc1ncnc(-c2ccc(C(=O)N3CC(O)CO3)c(OC)c2)c1C#Cc1ccc(N)nc1 [Example D-167] | 383 | 
CCc1ncnc(-c2ccc(C(=O)N3CCN(c4ccccc4)CC3)c(F)c2)c1C#Cc1ccc(N)nc1C [Example D-25] | 55 | 
Cc1ncnc(-c2ccc(C(=O)N3CCCCO3)c(F)c2)c1C#Cc1ccc(N)nc1 [Example D-227] | 100 | 
CCc1ncnc(-c2ccc(C(=O)N3CCN(C(C)C)CC3)c(OC)c2)c1C#Cc1ccc(N)nc1 [Example D-50] | 80 | 
CCc1ncnc(-c2ccc(C(=O)N3CCNCC3)c(F)c2)c1C#Cc1ccc(N)nc1 [Example D-113] | 80 | 
Cc1ncnc(-c2ccc(C(=O)N3CC(O)CO3)c(F)c2)c1C#Cc1ccc(N)nc1 [Example D-228] | 82 | 

Structure (SMILES) | EC50 (read-out: EC50 PC3) [nM] | EC50 [1] [nM]
CCc1ncnc(-c2ccc(C(=O)N3CCN4CCCCC4C3)c(F)c2)c1C#Cc1ccc(N)nc1C [Example D-18] | 41 | 
Cc1ncnc(-c2ccc(F)c(C(=O)N3CCCCC3)c2)c1C#Cc1ccc(N)nc1 [Example C-41] |  | 679
CCc1ncnc(-c2ccc(C(=O)NC[C@H]3CCCN3CC)c(F)c2)c1C#Cc1ccc(N)nc1 [Example D-200] | 451 | 
CCCCN1CCN(C(=O)c2ccc(-c3ncnc(CC)c3C#Cc3ccc(N)nc3)cc2OC)CC1 [Example D-161] | 156 | 
CCc1ncnc(-c2ccc(C)nc2)c1C#Cc1ccc(N)nc1 [Example C-31] |  | 133
CNC(=O)c1ccc(-c2ncnc(C)c2C#Cc2ccc(N)nc2)cc1Cl [Example C-5] |  | 50
CCc1ncnc(-c2ccc(C(=O)N3CCCCO3)c(F)c2)c1C#Cc1ccc(N)nc1 [Example D-219] | 58 | 
Cc1ncnc(-c2ccc(C3CC3)nc2)c1C#Cc1ccc(N)nc1 [Example C-26] |  | 170
CCc1ncnc(-c2ccc(C(=O)NC3CCN(C)C3)c(F)c2)c1C#Cc1ccc(N)nc1 [Example D-199] | 127 | 
CCc1ncnc(-c2ccc(C(=O)N3CCN(CC(F)(F)F)CC3)c(F)c2)c1C#Cc1ccc(N)nc1 [Example D-69] | 51 | 
CCc1ncnc(-c2ccc(C(=O)N3CCN(c4ccncc4)CC3)c(F)c2)c1C#Cc1ccc(N)nc1 [Example D-93] | 76 | 
CCc1ncnc(-c2ccc(C(=O)N3CCC(N4CCCCCC4)CC3)c(OC)c2)c1C#Cc1ccc(N)nc1 [Example D-176] | 384 | 
CCc1ncnc(-c2ccc(C(=O)N3CC[S+]([O-])CC3)c(F)c2)c1C#Cc1ccc(N)nc1 [Example D-105] | 50 | 
CCc1ncnc(-c2ccc(C(=O)NC3CCN(C4CCN(C)CC4)C3)c(F)c2)c1C#Cc1ccc(N)nc1 [Example D-210] | 172 | 
CCc1ncnc(-c2ccc(C(F)(F)F)nc2)c1C#Cc1ccc(N)nc1 [Example C-28] |  | 139
CCc1ncnc(-c2ccc(C(=O)NC3CC(N4CCN(C)CC4)C3)c(F)c2)c1C#Cc1ccc(N)nc1 [Example D-198] | 55 | 
CCN(CC)C(=O)c1cccc(-c2ncnc(C)c2C#Cc2ccc(N)nc2)c1 [Example C-36] |  | 590
CCc1ncnc(-c2ccc(C(=O)NC3CCCN(C)C3)c(F)c2)c1C#Cc1ccc(N)nc1 [Example D-197] | 122 | 
CCc1ncnc(-c2ccc(Cl)c(C(=O)N(CC)CC)c2)c1C#Cc1ccc(N)nc1 [Example C-47] |  | 517
CCc1ncnc(-c2ccc(C(=O)N3CCN(CCOC)CC3)c(OC)c2)c1C#Cc1ccc(N)nc1 [Example D-52] | 71 | 
CCc1ncnc(-c2ccc(C(=O)N3CCN(CC(F)F)CC3)c(F)c2)c1C#Cc1ccc(N)nc1C [Example D-12] | 45 | 
CCc1ncnc(-c2ccc(C(=O)N3CCC(O)CC3)c(F)c2)c1C#Cc1ccc(N)nc1 [Example D-71] | 32 | 
CCc1ncnc(-c2ccc(C(=O)N3CC[C@H](N(C)C)C3)c(F)c2)c1C#Cc1ccc(N)nc1 [Example D-237] | 77 | 
CCc1ncnc(-c2ccc(C(=O)N3CCN(c4ccccc4)CC3)c(F)c2)c1C#Cc1ccc(N)nc1 [Example D-98] | 78 | 
CCOC(=O)N1CCN(C(=O)c2ccc(-c3ncnc(CC)c3C#Cc3ccc(N)nc3)cc2F)CC1 [Example D-116] | 22 | 
CCc1ncnc(-c2ccc(C(=O)N3CC[C@@H](N(C)C)C3)c(OC)c2)c1C#Cc1ccc(N)nc1 [Example D-174] | 282 | 

Structure (SMILES) | EC50 (read-out: EC50 PC3) [nM] | EC50 [1] [nM]
CCc1ncnc(-c2ccc(OC)nc2)c1C#Cc1ccc(N)nc1 [Example C-30] |  | 178
CCc1ncnc(-c2ccc(C(=O)N(C)C)c(F)c2)c1C#Cc1ccc(N)nc1 [Example C-15A] |  | 74
CCc1ncnc(-c2ccc(C(=O)N3CCNC(=O)C3)c(Cl)c2)c1C#Cc1ccc(N)nc1 [Example D-44] | 56 | 
CON(C)C(=O)c1ccc(-c2ncnc(C)c2C#Cc2ccc(N)nc2)cc1F [Example D-229] | 64 | 
CCc1ncnc(-c2ccc(C(=O)N3CCCO3)cc2)c1C#Cc1ccc(N)nc1 [Example D-222] | 63 | 
CCc1ncnc(-c2ccc(C(=O)N3CCN(C)CC3)c(F)c2)c1C#Cc1ccc(N)nc1C [Example D-21] | 27 | 
CCc1ncnc(-c2ccc(C(=O)N3CCN(C4CCS(=O)(=O)C4)CC3)c(F)c2)c1C#Cc1ccc(N)nc1 [Example D-86] | 39 | 
CCc1ncnc(-c2ccc(C(=O)N3CCCO3)c(F)c2)c1C#Cc1ccc(N)nc1 [Example D-218] | 57 | 
CCc1ncnc(-c2ccc(C(=O)N3CCN(S(=O)(=O)CC)CC3)c(OC)c2)c1C#Cc1ccc(N)nc1 [Example D-55] | 36 | 
CCc1ncnc(-c2ccc(C(=O)N3CCC(N4CCCCC4)CC3)c(F)c2)c1C#Cc1ccc(N)nc1 [Example D-70] | 80 | 
CCc1ncnc(-c2ccc(C(=O)N3CC[C@@H](N(C)C)C3)c(F)c2)c1C#Cc1ccc(N)nc1 [Example D-236] | 49 | 
CCc1ncnc(-c2ccc(C(=O)N3CCN(CCO)CC3)c(F)c2)c1C#Cc1ccc(N)nc1 [Example D-91] | 44 | 
Cc1ncnc(-c2ccc(Cl)c(C(=O)N3CCOCC3)c2)c1C#Cc1ccc(N)nc1 [Example C-40] |  | 348
CCc1ncnc(-c2ccc(N3CCOCC3)nc2)c1C#Cc1ccc(N)nc1 [Example C-32] |  | 95
CCc1ncnc(-c2ccc(C(=O)NC3CCS(=O)(=O)C3)c(F)c2)c1C#Cc1ccc(N)nc1 [Example D-212] | 75 | 
Cc1ncnc(-c2ccc(C(=O)N3CCCO3)c(F)c2)c1C#Cc1ccc(N)nc1 [Example D-226] | 49 | 
CCc1ncnc(-c2ccc(C(=O)N3CCN(CC(F)F)CC3)c(OC)c2)c1C#Cc1ccc(N)nc1 [Example D-47] | 58 | 
CCc1ncnc(-c2ccc(C(=O)N(C)OC)c(OC)c2)c1C#Cc1ccc(N)nc1 [Example D-178] | 85 | 
CCc1ncnc(-c2ccc(C(=O)N(C)CC(C)(C)O)c(F)c2)c1C#Cc1ccc(N)nc1 [Example D-81] | 72 | 
CCc1ncnc(-c2ccc(C(=O)N3CCN(CC4CCCCC4)CC3)c(OC)c2)c1C#Cc1ccc(N)nc1 [Example D-185] | 1140 | 
CCc1ncnc(-c2ccc(C(=O)N3CC[C@@H](O)C3)c(Cl)c2)c1C#Cc1ccc(N)nc1 [Example D-146] | 79 | 
Cc1ncnc(-c2ccc(C(=O)N3CCCCO3)c(Cl)c2)c1C#Cc1ccc(N)nc1 [Example D-231] | 78 | 
CCc1ncnc(-c2ccc(C(=O)N(C)CCN3CCCC3=O)c(F)c2)c1C#Cc1ccc(N)nc1 [Example D-119] | 114 | 
CCc1ncnc(-c2ccc(C(=O)N(C)CCO)c(Cl)c2)c1C#Cc1ccc(N)nc1 [Example D-34] | 36 | 
COCCN1CCN(C(=O)c2ccc(-c3ncnc(C)c3C#Cc3ccc(N)nc3)cc2)CC1 [Example D-189] | 63 | 
